The target in this assay is human C3 (human, UniProt P01024 23-667; P01024 partial chain). The assay is described as follows: SPR (Biacore 2000); Z-ABD immobilised (70 RU), analyte injected. Background: Surface plasmon resonance follows binding to a sensor surface in real time, without labels.
UniProt P01024, sequence (P01024 23-667 limits assumed, chain 1 of 2): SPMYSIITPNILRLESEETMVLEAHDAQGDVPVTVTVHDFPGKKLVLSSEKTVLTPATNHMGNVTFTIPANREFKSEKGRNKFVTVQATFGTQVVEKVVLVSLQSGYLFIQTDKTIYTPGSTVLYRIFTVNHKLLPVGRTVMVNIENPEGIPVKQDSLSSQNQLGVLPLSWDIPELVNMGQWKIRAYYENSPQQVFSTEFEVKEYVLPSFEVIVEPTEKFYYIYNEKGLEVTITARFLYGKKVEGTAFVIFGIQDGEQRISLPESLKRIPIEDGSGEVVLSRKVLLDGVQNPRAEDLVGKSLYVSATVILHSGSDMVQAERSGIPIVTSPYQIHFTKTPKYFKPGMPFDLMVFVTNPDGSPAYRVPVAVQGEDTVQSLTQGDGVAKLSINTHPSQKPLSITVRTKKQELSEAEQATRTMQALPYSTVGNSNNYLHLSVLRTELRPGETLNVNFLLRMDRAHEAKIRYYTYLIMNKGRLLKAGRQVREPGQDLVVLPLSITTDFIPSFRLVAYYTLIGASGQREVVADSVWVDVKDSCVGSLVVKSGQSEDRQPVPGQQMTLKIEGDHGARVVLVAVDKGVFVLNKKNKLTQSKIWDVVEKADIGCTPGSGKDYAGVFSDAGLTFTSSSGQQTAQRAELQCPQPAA
UniProt P01024, sequence (P01024 672-1663 limits assumed, chain 2 of 2): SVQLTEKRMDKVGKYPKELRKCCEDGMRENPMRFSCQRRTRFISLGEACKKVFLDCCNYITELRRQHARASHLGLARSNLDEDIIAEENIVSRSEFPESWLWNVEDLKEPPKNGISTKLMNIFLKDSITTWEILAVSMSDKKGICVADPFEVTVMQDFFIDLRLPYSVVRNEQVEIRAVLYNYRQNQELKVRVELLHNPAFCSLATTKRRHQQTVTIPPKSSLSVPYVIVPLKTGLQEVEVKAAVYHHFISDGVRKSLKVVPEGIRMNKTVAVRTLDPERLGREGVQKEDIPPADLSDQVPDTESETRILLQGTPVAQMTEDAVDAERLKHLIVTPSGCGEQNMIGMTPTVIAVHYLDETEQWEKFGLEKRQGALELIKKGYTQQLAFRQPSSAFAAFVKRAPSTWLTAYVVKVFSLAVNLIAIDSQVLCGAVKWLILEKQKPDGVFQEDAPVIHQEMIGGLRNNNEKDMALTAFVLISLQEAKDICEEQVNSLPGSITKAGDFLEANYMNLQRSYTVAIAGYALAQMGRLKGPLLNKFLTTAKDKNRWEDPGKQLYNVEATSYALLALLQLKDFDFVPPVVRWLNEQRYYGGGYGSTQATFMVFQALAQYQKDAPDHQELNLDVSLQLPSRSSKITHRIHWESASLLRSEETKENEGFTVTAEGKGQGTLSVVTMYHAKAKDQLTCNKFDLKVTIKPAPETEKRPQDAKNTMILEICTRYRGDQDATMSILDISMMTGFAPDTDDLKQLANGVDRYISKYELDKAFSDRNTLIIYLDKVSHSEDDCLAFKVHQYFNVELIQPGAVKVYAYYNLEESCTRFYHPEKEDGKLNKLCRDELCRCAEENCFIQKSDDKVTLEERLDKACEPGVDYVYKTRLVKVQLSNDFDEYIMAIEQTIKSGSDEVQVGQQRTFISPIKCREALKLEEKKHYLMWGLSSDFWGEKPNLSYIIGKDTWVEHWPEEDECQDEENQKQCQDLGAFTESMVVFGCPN

B1: Z06009a (SEQ ID NO:748) fused to ABD094 (SEQ ID NO:759) by a GS linker (designed binder)
chain: AEAKYAKEVLEAWDEIDRLPNLTLDQWLAFINKLDDDPSQSSELLSEAKKLNDSQAPKVDGSLAEAKEAANAELDSYGVSDFYKRLIDKAKTVEGVEALKDAILAALP
notes: also called Z-ABD variant
Turning to B1, the binding result was “no binding (tested: 400 nM)”.
